# From PubChem BioAssay AID1508642 (National Center for Advancing Translational Sciences (NCATS), 2021)
# Screen size: about 43,000 compounds; about 200 (0.47%) were called active. Inconclusive results (about 12%) are left out. Calls follow the shape of the dose curve; as a rule, active = well fitted cell-killing curve with a large enough effect; inconclusive = small, poorly fitted or top-dose-only effect, or effect the other way; inactive = flat fitted curve, though single readings scatter. Some of the results follow.
# Experiment: Cell viability qHTS assay in S16 Pmp22-F2sN cells; also: nearly all actives have a fitted effect of over 65% in size
# Details: S16 Pmp22-F2sN Schwann cells viability, CellTiter-Glo, 24 h; series mostly up to 57.5 µM; activity change, negative = cytotoxicity: at the top concentration
# Outline: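 Viability was measured by CellTiter-Glo luminescence (15 min, room temperature). This followed 24 h at 37 °C of compound exposure (23 nL pin transfer) in S16 Pmp22-F2sN Schwann cells, 500-1,000 per well.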
# % is scaled to controls: 0 for no effect and ±100 for the full control effect.
row,Compound,"activity change, negative = cytotoxicity"
1,CCN1CCN(C(c2ccc(SC)cc2)c2c(O)cc(C)n(Cc3ccco3)c2=O)CC1 (stereo unspecified),inactive: 0.163%
2,Cc1cc(C)c(NC(=O)CCn2c(=O)c3cccn3c3ccccc32)c(C)c1,inactive: -14.8%
3,O=C(COC(=O)C(Cc1c[nH]c2ccccc12)NC(=O)c1ccc(Cl)cc1)c1ccc(Cl)cc1 (stereo unspecified),inactive: 11.6%
4,Cc1nn(-c2ccccc2)c2c1cc1c(=O)n(C)c(=O)nc-1n2-c1cccc(Cl)c1,inactive: 5.29%
5,Cc1cc(C(=O)NCc2cccc(Br)c2)c2c(C)nn(-c3ccccc3)c2n1,inactive: -0.947%
6,CCOc1ccc(NC(=O)c2nc3nc(C)cc(C(F)F)n3n2)cc1,inactive: -1.96%
7,Cc1cc(C)c2c(-n3cccc3)c(C(=O)NCc3cccc(F)c3)sc2n1,inactive: 10.5%
8,CCc1nnc(SCc2ccc(OC)cc2)c2cc3sc(C)cc3n12,inactive: 19.8%
9,COc1cc(CCNC(=O)c2ccc3c(c2)c(C)c(C)n3Cc2cccc(C)c2)cc(OC)c1OC,inactive: -19.8%
10,COCCCn1c(=N)c(C(=O)NCc2cccnc2)cc2c(=O)n3cc(C)ccc3nc21,inactive: 5.42%
11,COc1ccc(OC)c(Nc2ncnc3c2nc2n3CCCC2)c1,inactive: 2.11%
12,COc1cc(OC)c(NC(=O)c2nn(-c3ccc(C)cc3)c(=O)c3c2c2ccccc2n3C)cc1Cl,inactive: 25.4%
13,O=C(Nc1cccc(C(=O)N2CCN(c3cccc(Cl)c3)CC2)c1)c1nsc2ccccc12,inactive: -8.64%
14,CCOc1ccc(C2c3c(oc4ccc(C)cc4c3=O)C(=O)N2CCCN(C)C)cc1 (stereo unspecified),inactive: 3.04%
15,CCc1ccccc1NC(=O)c1ccc2c(SCC(=O)O)c3c(nc2c1)CCC3,inactive: 6.2%
16,Cc1ccccc1Cn1c2ccccc2c2cnn(CC(=O)NCC(C)c3ccccc3)c(=O)c21 (stereo unspecified),inactive: 18.2%
17,CCc1ccccc1NC(=O)C1CCN(c2cnccn2)CC1,inactive: 4.73%
18,CC(C)CCn1nnc2sc(-c3ccccc3)cc2c1=O,inactive: 1.21%
19,CCCCSCCCNC(=O)c1cn(C)c2ccc(S(=O)(=O)N3CCCCCC3)cc2c1=O,inactive: 7.54%
20,CC(=O)c1nnn(-c2ccc(C)cc2Cl)c1C,inactive: -2.75%
21,O=C(CCn1cnnn1)Nc1cc(C(F)(F)F)cc(C(F)(F)F)c1,inactive: -4.7%
22,CC(=O)c1ccc(Nc2ccc3cc(S(=O)(=O)N4CCCC4)ccc3n2)cc1,inactive: -19.4%
23,COc1cc(NC(=O)CSc2nccn2C)cc(OC)c1OC,inactive: 12.6%
24,COc1ccc2c(c1)c1c(c(=O)n(-c3ccc(OC)c(OC)c3)c(=O)n1Cc1ccccc1F)n2C,inactive: -1.12%

row,Compound,"activity change, negative = cytotoxicity"
1,Cc1ccc(NC(=O)c2c(NC(=O)Cc3ccccc3)sc3c2CCCC3)cc1,inactive: 8.87%
2,CCC(=O)C1=C(c2ccc(OC)c(OC)c2)N(C(=O)CC)n2c(CC)nnc2S1,inactive: -10.3%
3,CCOc1ccc(CCNC(=O)CN2C(=O)COc3ccc(S(=O)(=O)N4CCCCCC4)cc32)cc1,inactive: 17%
4,CC(=O)c1cccc(NC(=O)Cn2c(=O)oc3cc(S(=O)(=O)N4CCCC4)ccc32)c1,inactive: 8.55%
5,CC(=O)Nc1ccc(NC(=O)CCSCCc2ccccn2)cc1,inactive: -6.38%
6,O=S(=O)(Nc1cc(F)ccc1F)c1ccc2[nH]c3c(c2c1)CCCCC3,inactive: 8.01%
7,Cc1ccc2oc(=O)c3cc(C(=O)N4CCN(c5ccccc5F)CC4)sc3c2c1,inactive: 4.16%
8,CC(C)(C)c1ccc(Oc2ccc(NC(=O)CCC(=O)OCC(=O)c3ccccc3)cc2)cc1,inactive: 7.87%
9,N#Cc1c(-n2ncnc2-c2cccc(Br)c2)sc2c1CCCCC2,inactive: -2.09%
10,COc1ccc(-n2c(SCC(=O)Nc3cccc(C)c3C)nc3c([nH]c4ccccc43)c2=O)cc1,inactive: 5.57%
11,Fc1cccc(Cl)c1CNCCSc1nnnn1-c1ccccc1,inactive: 4.17%
12,O=C(Nc1cc2ccc(O)cc2oc1=O)c1ccccc1,inactive: -7.14%
13,CC(C)CCNC(=O)c1ccc2c(c1)N(Cc1ccccc1F)C(=O)c1ccccc1S2(=O)=O,inactive: -8.58%
14,O=C(CNC(=O)c1ccccc1F)OCc1cc(=O)n2nc(C3CCCCC3)sc2n1,inactive: 11.6%
15,COc1cccc(C(=O)N(Cc2ccco2)c2ccccn2)c1,inactive: -7.34%
16,COC(=O)CNC(=O)N1CCN(S(=O)(=O)c2ccc3c(ccn3C)c2)CC1,inactive: 3.37%
17,COc1ccc(C(=O)Nc2ccc3oc(-c4ccc5ccccc5c4)nc3c2)cc1Br,inactive: 11.9%
18,Cn1cccc1-c1cc2n(n1)CCC(=O)N2CCCC(=O)NCc1ccc(F)cc1,inactive: 0.0114%
19,CCCCNC(=O)CN1C(=O)COc2ccc(S(=O)(=O)N3CCCCCC3)cc21,inactive: -2.45%
20,COc1ccc2cc(CNc3ccc(OC)c(OC)c3)c(=O)n(CC(=O)Nc3ccccc3F)c2c1,inactive: 14.1%
21,CCOC(=O)c1[nH]c(C)c(CCC(=O)Nc2cccc(SC)c2)c1C,inactive: 0.972%
22,Cc1cc(=O)[nH]c2nnc(SCc3ccc(C(F)(F)F)cc3)n12,inactive: -4.81%
23,Cc1cccc(C)c1NC(=O)Cn1c(SCC(=O)NCc2ccccc2)nc2ccccc21,inactive: 10.8%
24,Cc1ccc(NC(=O)CN2C(=O)c3ccccc3Sc3ccc(C(=O)N4CCOCC4)cc32)c(Cl)c1,inactive: -10.1%

row,Compound,"activity change, negative = cytotoxicity"
1,CCN(CC)S(=O)(=O)c1ccc2oc(C(=O)Nc3cc(C)ccc3OC)c(C)c2c1,inactive: 0.108%
2,CCOc1ccccc1CNCc1c(C(=O)O)n(Cc2ccc(F)cc2)c2cc(C)ccc12,inactive: -20.1%
3,CC(=O)c1ccc(N2CCN(C(=O)CCn3cnc4onc(-c5ccc(F)cc5)c4c3=O)CC2)cc1,inactive: 1.17%
4,O=C1CC(c2ccc(F)cc2)c2c(c3ccccc3[nH]c2=O)O1 (stereo unspecified),inactive: -4.43%
5,CCOC(=O)c1ccc(NC(=O)CSc2nccn2-c2cc(C)cc(C)c2)cc1,inactive: 12.7%
6,Cc1cc(C)cc(NC(=O)CNS(=O)(=O)c2ccc3nc(C)sc3c2)c1,inactive: -10.9%
7,CCn1cc(C(=O)NCCc2ccc(C)cc2)c(=O)c2cc(S(=O)(=O)N3CCc4ccccc4C3)ccc21,inactive: 2.06%
8,Cc1ccc(-c2noc(-c3cc(-c4ccc(F)cc4)n[nH]3)n2)cc1,inactive: 0.443%
9,O=C(Nc1c(-c2ccccc2)nc2ccccn12)c1ccccc1F,inactive: 0.019%
10,Cc1ccc(SCc2nc(-c3ccc(C(=O)Nc4cc(C)ccc4C)cc3)oc2C)cc1,inactive: -0.828%
11,O=C(Nc1ccc2[nH]c(=O)c(=O)[nH]c2c1)c1cccc(F)c1,inactive: -7.97%
12,Cc1ccc(NC(=O)CSc2nc3ccc(NC(=O)COc4ccc(C)cc4)cc3s2)cc1,inactive: 17%
13,COc1ccccc1N1CCN(C(=O)CCn2nc(C)c(S(=O)(=O)N3CCCC3)c2C)CC1,inactive: -21.6%
14,Cc1ccccc1C1=CCN(c2ncc(NC(=O)c3ccc(Cl)cc3)cc2C(=O)O)CC1,inactive: -2.86%
15,Cc1nc2nc(SCC(=O)NCCc3ccc(Cl)cc3)nn2c(C)c1Cc1ccccc1Cl,inactive: 14.4%
16,Cc1nc2c(-c3ccccc3)c(C)nn2c(C)c1CCC(=O)Nc1ccccc1F,inactive: -0.634%
17,CS(=O)(=O)n1nc(-c2ccco2)nc1NCc1ccccc1Cl,inactive: -18%
18,COc1ccc(C(=O)c2cn(Cc3cccc(C)c3)c3cc4c(cc3c2=O)OCO4)cc1,inactive: 13%
19,COc1cc(Cl)c(C)cc1NC(=O)CSc1cc(-c2ccccc2)nc(C)n1,inactive: -0.509%
20,CCOC(=O)c1[nH]c(C)c(C(=O)NCc2cccc(OC)c2)c1C,inactive: -15.8%
21,COc1ccc(CC(=O)NCCc2csc(-c3ccc(C(F)(F)F)cc3)n2)cc1,inactive: 0.213%
22,CCc1ccccc1NC(=O)Cn1c(=O)n(CC(=O)NCCc2ccccc2)c(=O)c2ccccc21,inactive: 3.14%
23,COc1ccc(-c2noc(-c3ccc(C)cc3Cl)n2)cc1OC,inactive: -9.27%
24,COc1ccc(C2CC(=O)Nc3c2c(=O)n(C)c2nc4ccccc4n32)cc1 (stereo unspecified),inactive: 3.14%

row,Compound,"activity change, negative = cytotoxicity"
1,Cn1c(=O)c2c(SCC(=O)NCc3ccc(F)cc3)nc(-c3ccccc3Cl)nc2n(C)c1=O,inactive: 11.3%
2,COC(=O)c1sc2cccc(F)c2c1S(=O)(=O)Nc1ccc(C)cc1Cl,inactive: 0.339%
3,Cc1c(/C=C(\C#N)C(=O)Nc2cccc(Cl)c2)c2ccccc2n1Cc1ccccc1,inactive: -2.91%
4,CCOc1ccc(OCC)c(NC(=O)CCc2nc3cccnc3n2Cc2cccs2)c1,inactive: -8.51%
5,COc1ccc(-c2nc(C)c(CCNC(=O)c3c(F)cccc3F)s2)cc1,inactive: -5.54%
6,Cc1cccc(Cc2c(C)nc3nc(SCc4ccccc4Cl)nn3c2C)c1,inactive: -2.51%
7,Cc1ccc(C)c(Cn2c(=O)n(CCC(=O)NCc3ccc4c(c3)OCO4)c(=O)c3sccc32)c1,inactive: 5.86%
8,COc1cc(Cl)c(C)cc1NC(=O)CSc1nc2c(c(=O)[nH]1)CCCC2,inactive: 15.3%
9,COC(=O)N1CCCc2cc(S(=O)(=O)N3CCN(c4ccccc4)CC3)ccc21,inactive: 7.05%
10,CCCCNC(=O)CCCn1c(=O)c2ccccc2n(Cc2c(C)cc(C)cc2C)c1=O,inactive: 6.3%
11,CN(C)c1ccc(CNC(=O)c2cnc3sc(N4CCCCCC4)nn3c2=O)cc1,inactive: 0.467%
12,COc1cc(OC)c(NC(=O)n2ncc3cc(Cl)ccc32)cc1Cl,inactive: 20.5%
13,COc1ccc(C2CC(=O)c3c([nH]c(C(=O)OC4CCCCCC4)c3C)C2)cc1 (stereo unspecified),inactive: 14.6%
14,COc1ccc(OC)c(NC(=O)CSC2=Nc3ccccc3C3=NC(CC(=O)NCc4ccc(F)cc4)C(=O)N23)c1 (stereo unspecified),inactive: -19.5%
15,COc1cccc(OCC(=O)NC2CC(=O)N(c3ccc4c(c3)OCCO4)C2)c1 (stereo unspecified),inactive: -2.31%
16,COC(=O)c1ccccc1NC(=O)c1cc(C)nc2c1c(C)nn2-c1ccc(C)cc1,inactive: 12%
17,COc1ccc2c(c1)c1c(c(=O)n(-c3ccc(OC)c(OC)c3)c(=O)n1CC(=O)N1CCCC1)n2C,inactive: 4.91%
18,Cc1ccc(NC(=O)N2CCN(c3nnc(C)c4c(C)n(-c5ccc(Cl)cc5)nc34)CC2)c(C)c1,inactive: 9.48%
19,Cc1ccc(CNC(=O)CSc2ncc(S(=O)(=O)c3ccc(C)c(Cl)c3)c(=O)[nH]2)cc1,inactive: 15.9%
20,O=C(Nc1ccccc1O)c1cc(S(=O)(=O)N2CCCC2)ccc1Cl,inactive: 14.7%
21,Cc1ccc2nc(-c3ccc(NC(=O)c4ccccc4S(C)(=O)=O)cc3)sc2c1,inactive: 17.6%
22,CC1=C(C(N)=O)C(c2cccc(O)c2)n2ncnc2N1 (stereo unspecified),inactive: -4.78%
23,O=C(c1cccs1)c1cn(CCOc2ccc(Cl)cc2)c2ccccc12,inactive: -22.7%
24,COc1ccc(Cl)cc1NC(=O)Cn1c(=O)oc2cc(S(=O)(=O)N3CCCCCC3)ccc21,inactive: -1.37%
